The subject of the data set is ATP. The data set is described as follows: switch fluorescence ratio, 500 uM ATP over buffer (Cy3 cluster intensity, sum of 5 cycles each) (fold (ratio)); higher = stronger signal-on switching upon ATP binding; sequences stand for … in TCGTCGGCAGCGTCAGATGTGTATAAGAGACAGTTTTTTTTTTTTTTTTTTTTTTTTT…TC. The following applies: aptamer strand: ATP DNA aptamer (quencher-CACCTGGGGGAGTATTGCGGAGGAAGG + anchor), 100 nM annealed; ATP concentration: 500 uM; one replicate. In outline:
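Clusters with intensities outside 100-1000 RFU were excluded. The remaining Cy3-labelled switching-strand clusters on a modified Illumina MiSeq flow-cell had been annealed to 100 nM quencher-labelled ATP aptamer and imaged in selection buffer, then after 15 min with 500 uM ATP at 22 °C, for five cycles separated by NaOH stripping and re-annealing. The fluorescence ratio, averaged per switch-domain sequence, is each cluster's summed target-cycle Cy3 intensity over its summed buffer-cycle Cy3 intensity.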

Values marked as one replicate rest on one cluster of the flow cell; about a third of the high ones do not repeat.

We go through 120 sequences from the supplement of paper PMC10126150.
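Also: ATP exposure 15 min at 22 °C before imaging.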

Consider TATTTTTCCC, for which the switch fluorescence ratio came out at 1.02.

With TTCGGTTAAA, the switch fluorescence ratio came out at 0.962.

Take AAGTTGGAC: the switch fluorescence ratio stood at 1.02.

Turning to TACGCCGTG, the switch fluorescence ratio is 0.975.

Regarding TAGCCAGGAT, the switch fluorescence ratio came to 1.01.

Turning to GAGATTTTAT, the switch fluorescence ratio was 1.01.

AAGGGATCAG: the switch fluorescence ratio came to 0.989.

As to GCTGTTGCCT, the switch fluorescence ratio was 0.983.

Consider GGTGCTGCGG, for which the switch fluorescence ratio was 1.01.

Turning to GGTCAACCTG, the switch fluorescence ratio was 0.977.

Consider ATCATACGCT, for which the switch fluorescence ratio was determined as 1.13.

In the case of CGCGAAGGCC, the switch fluorescence ratio stood at 1.01.

As to GACCCCGTTG, the switch fluorescence ratio amounted to 1.

Turning to TGCCCCCCTT, the switch fluorescence ratio was found to be 1.08.

As to AGGGACACAT, the switch fluorescence ratio amounted to 1.16.

Regarding AGCCACCGGC, the switch fluorescence ratio was determined as 1.03.

Turning to TGGGCAATCT, the switch fluorescence ratio was 1.27.

For the sequence TACCAGCACG, the switch fluorescence ratio came to 1.15.

As to TGCGATGTG, the switch fluorescence ratio worked out at 1.01.

For CCGGGAGATA, the switch fluorescence ratio was determined as 1.1.

AGCAAAACTT: the switch fluorescence ratio worked out at 1.55.

As to GGAGAGTGTT, the switch fluorescence ratio was 0.979.

In the case of GGACGGGGAA, the switch fluorescence ratio was determined as 1.01.

Consider CGAAGGGCAT, for which the switch fluorescence ratio is 0.979.

On to TCGATCGCTG, for which the switch fluorescence ratio worked out at 0.983.

As for TATCTTTCTA, the switch fluorescence ratio turned out to be 0.982.

Take CTGTATATCG: the switch fluorescence ratio amounted to 0.938.

For ACGTAGAAGA, the switch fluorescence ratio turned out to be 1.09.

Turning to CCAACGCCTA, the switch fluorescence ratio was 2.44.

As for AGTTTTCGGT, the switch fluorescence ratio is 0.966.

In the case of GTGCGATATT, the switch fluorescence ratio stood at 1.05.

On to TATTTAAACC, for which the switch fluorescence ratio was determined as 1.

For GGAGTAGATC, the switch fluorescence ratio was determined as 1.06.

As to ATCTTTCCAT, the switch fluorescence ratio worked out at 1.03.

As for TGAATGGCTA, the switch fluorescence ratio is 0.975.

Regarding GAGTTTATTC, the switch fluorescence ratio was found to be 0.991.

Consider ACGTGCAGCA, for which the switch fluorescence ratio was found to be 0.954.

In the case of CGCGCATGCT, the switch fluorescence ratio is 1.2.

As to CCATTCGGC, the switch fluorescence ratio amounted to 0.979.

Turning to TACATTGCGA, the switch fluorescence ratio is 0.966.

Take CCGCCGGCGG: the switch fluorescence ratio came to 1.1.

Turning to CCTCTCCTCG, the switch fluorescence ratio worked out at 1.57.

For the sequence AGCGCGTTCC, the switch fluorescence ratio is 1.14.

Regarding TCAGTCGAGA, the switch fluorescence ratio turned out to be 1.02.

Take TGTTAAGAT: the switch fluorescence ratio is 0.996.

CAATCGCATG: the switch fluorescence ratio came out at 1.21.

GCTGAAAATC: the switch fluorescence ratio is 0.97.

In the case of GGGGGCTGC, the switch fluorescence ratio was 0.935.

On to TGTGTTGGAA, for which the switch fluorescence ratio came to 0.949.

As for TTGCGTGAGA, the switch fluorescence ratio amounted to 1.05.

Regarding CCAGTGGGCA, the switch fluorescence ratio came out at 1.03.

Regarding CCCTTGTCTT, the switch fluorescence ratio was found to be 0.96.

In the case of ACCGAGATTG, the switch fluorescence ratio was 0.983.

CAAGCTCGAG: the switch fluorescence ratio was 1.01.

With AGAGGAGGGC, the switch fluorescence ratio came to 1.02.

Take TGTGTCACTT: the switch fluorescence ratio was 0.978.

Turning to GCTATGGGTT, the switch fluorescence ratio was 0.987.

For the sequence ACCGCTTTCT, the switch fluorescence ratio stood at 1.23.

AAAGTTAGGT: the switch fluorescence ratio came to 0.968.

With GAGTCCCTCA, the switch fluorescence ratio came to 0.984.

As to AGTGATGCTC, the switch fluorescence ratio came to 1.27.

For the sequence GTATCTTAAA, the switch fluorescence ratio came out at 1.01.

Take CCAGTCAGCG: the switch fluorescence ratio was 1.

With ACGAGTGGTT, the switch fluorescence ratio stood at 1.07.

On to CCCCTCCAAA, for which the switch fluorescence ratio was 1.56.

Consider ATCCAGGCAG, for which the switch fluorescence ratio was found to be 1.04.

Consider CGACTTTCGC, for which the switch fluorescence ratio stood at 1.03.

AGCTATACCT: the switch fluorescence ratio stood at 1.53.

Regarding TTTTTGCTCC, the switch fluorescence ratio was 1.07.

As to GCATCGGCAT, the switch fluorescence ratio was 1.04.

Take ACAACCGGGA: the switch fluorescence ratio was 1.13.

Consider CGACGTTGAT, for which the switch fluorescence ratio came out at 1.12.

ACGCGAGACG: the switch fluorescence ratio amounted to 1.22.

In the case of GGTATCGACA, the switch fluorescence ratio turned out to be 0.997.

Turning to ATATTCGAGC, the switch fluorescence ratio worked out at 0.992.

With GAGTTTTCCC, the switch fluorescence ratio turned out to be 1.02.

TTTTTCAAAG: the switch fluorescence ratio was determined as 0.967.

TAGACTTCA: the switch fluorescence ratio was found to be 1.02.

Consider GTGAAGGAAA, for which the switch fluorescence ratio turned out to be 0.992.

On to ATCATGTCGG, for which the switch fluorescence ratio came to 0.993.

Consider CTGAATCAGT, for which the switch fluorescence ratio amounted to 0.979.

ACTCCACCCA: the switch fluorescence ratio was found to be 1.47.

With CGTCCAGAA, the switch fluorescence ratio is 1.02.

Turning to AGACGGGCTG, the switch fluorescence ratio amounted to 1.01.

Turning to TAGAGCACAT, the switch fluorescence ratio turned out to be 1.09.

On to GCTGCATTCA, for which the switch fluorescence ratio came to 1.02.

For CTTGAATCAA, the switch fluorescence ratio came out at 0.983.

With GAAAGGGCCT, the switch fluorescence ratio is 0.947.

On to TTATGGCATG, for which the switch fluorescence ratio is 0.953.

On to TCGGATCAAG, for which the switch fluorescence ratio was found to be 0.985.

As to CGTGTGTCTT, the switch fluorescence ratio amounted to 0.991.

In the case of TGACCGACTG, the switch fluorescence ratio was found to be 0.945.

AGCGCTTCTG: the switch fluorescence ratio was 0.977.

As to AATAAGCTGA, the switch fluorescence ratio worked out at 0.988.

With AGACGCGGCC, the switch fluorescence ratio was determined as 1.02.

Take AATATCTGGT: the switch fluorescence ratio was determined as 0.934.

As for CCACTATATC, the switch fluorescence ratio stood at 1.48.

Turning to AGGTACGTAG, the switch fluorescence ratio turned out to be 1.02.

Take ATATACGTTT: the switch fluorescence ratio was determined as 1.

With AAATAGTCAT, the switch fluorescence ratio worked out at 0.975.

Take TCTTCCAGAT: the switch fluorescence ratio was determined as 1.03.

In the case of AGCACGATG, the switch fluorescence ratio was found to be 1.01.

In the case of TTTTACCAGT, the switch fluorescence ratio worked out at 0.979.

As to CTGTGCACGT, the switch fluorescence ratio came out at 1.02.

On to TCCGAGGTAA, for which the switch fluorescence ratio stood at 5.45.

On to ATACCTAAGG, for which the switch fluorescence ratio is 1.03.

Consider AGGGGAATGA, for which the switch fluorescence ratio worked out at 0.957.

With GTTATGATTC, the switch fluorescence ratio came out at 1.04.

For GTCAGAAATT, the switch fluorescence ratio stood at 0.964.

With GGTATTCTAC, the switch fluorescence ratio was 0.983.

Consider GTGGCTTAAT, for which the switch fluorescence ratio came out at 0.981.

For the sequence GTTGATGGCA, the switch fluorescence ratio came out at 1.06.

On to GGACCGTCGT, for which the switch fluorescence ratio amounted to 1.03.

Regarding GACGTAGCGT, the switch fluorescence ratio was 1.32.

For the sequence AGAGCGGCCG, the switch fluorescence ratio turned out to be 1.03.

With GCCACAATGG, the switch fluorescence ratio is 1.22.

With GTTGAAGAGA, the switch fluorescence ratio amounted to 1.04.

As to TACGGAGTAA, the switch fluorescence ratio was 1.11.

Turning to GATTCACCTG, the switch fluorescence ratio is 0.976.

For the sequence TTAACGAGGC, the switch fluorescence ratio amounted to 1.05.
